# Data published in publication PMC4336329 (PLoS ONE, 2015).
# In all, about 310,000 compounds went through this assay and about 14,000 (4.5%) showed an effect of 50% or more. The effect is printed as a negative number. The list shows a part of the results.
# Target: human ether-à-go-go-related gene (hERG) potassium channel (human, UniProt Q12809)
# Experiment: primary screen, population patch clamp on CHO cells stably expressing hERG
# 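Also: peak tail current of the secondary pulse compared with the same well before compound.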
# human ether-à-go-go-related gene (hERG) potassium channel, sequence (Q12809 whole entry, looked up): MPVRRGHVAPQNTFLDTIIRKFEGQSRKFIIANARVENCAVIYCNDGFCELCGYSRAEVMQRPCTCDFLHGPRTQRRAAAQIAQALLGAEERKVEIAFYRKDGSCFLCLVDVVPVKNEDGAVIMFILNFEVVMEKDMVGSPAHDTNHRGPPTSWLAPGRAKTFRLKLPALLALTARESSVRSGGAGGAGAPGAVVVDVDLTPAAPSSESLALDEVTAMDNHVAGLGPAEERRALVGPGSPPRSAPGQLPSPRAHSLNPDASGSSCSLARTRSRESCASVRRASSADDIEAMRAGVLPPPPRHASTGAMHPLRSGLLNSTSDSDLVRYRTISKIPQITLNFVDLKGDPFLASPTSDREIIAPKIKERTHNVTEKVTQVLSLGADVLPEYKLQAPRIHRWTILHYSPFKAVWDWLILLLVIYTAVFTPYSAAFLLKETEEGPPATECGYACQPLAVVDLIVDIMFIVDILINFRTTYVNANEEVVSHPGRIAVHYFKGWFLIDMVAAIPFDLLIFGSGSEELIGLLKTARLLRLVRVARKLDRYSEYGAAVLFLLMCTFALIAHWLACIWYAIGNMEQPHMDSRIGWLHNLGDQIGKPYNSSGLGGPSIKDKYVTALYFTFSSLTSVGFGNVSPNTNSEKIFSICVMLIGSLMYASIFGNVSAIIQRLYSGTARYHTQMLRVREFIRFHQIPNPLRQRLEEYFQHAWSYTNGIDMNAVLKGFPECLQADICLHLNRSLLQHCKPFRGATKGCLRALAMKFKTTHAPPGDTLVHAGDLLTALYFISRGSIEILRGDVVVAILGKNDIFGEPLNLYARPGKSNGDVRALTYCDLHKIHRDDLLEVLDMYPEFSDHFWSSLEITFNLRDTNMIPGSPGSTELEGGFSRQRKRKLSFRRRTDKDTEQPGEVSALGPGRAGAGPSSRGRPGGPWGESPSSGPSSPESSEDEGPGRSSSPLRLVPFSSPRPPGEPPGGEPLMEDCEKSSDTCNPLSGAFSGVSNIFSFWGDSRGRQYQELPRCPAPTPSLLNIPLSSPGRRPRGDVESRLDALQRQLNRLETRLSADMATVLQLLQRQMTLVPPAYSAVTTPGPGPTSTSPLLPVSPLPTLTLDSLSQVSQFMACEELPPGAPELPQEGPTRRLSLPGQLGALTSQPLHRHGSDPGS
row,SMILES,"hERG current change (%, negative = inhibition) at 10uM [%]"
1,CN1CCN(c2ccc(Cl)cc2NC(=O)CC2OC(=O)c3ccccc32)CC1 (stereo not shown),-74.5
2,CN(c1ccc(O)cc1)c1nc(-c2ccccc2)cs1,15.3
3,CN(Cc1ccncc1)C1CC(=O)N(c2ccc(Cl)cc2)C1=O (stereo not shown),-17.9
4,Cc1oc(-c2cccc(F)c2)nc1CN(Cc1ccccc1)C[C@@H]1CCC(=O)N1,7.22
5,C/C(=N\NC(=O)COc1ccccc1)c1ccc(O)cc1,17.9
6,CC(Cl)C(=O)N1c2ccccc2CCc2ccccc21 (stereo not shown),-5.02
7,Cc1cc(Nc2ccc3c(c2)OCCO3)c2ccccc2n1.Cl,-56.1
8,CC(C)CN(C(=O)CSc1n[nH]c(-c2cccs2)n1)C1CCS(=O)(=O)C1 (stereo not shown),-2.69
9,Cc1ccc(C)c(-n2c(SCC(=O)N3CCCC3)nnc2-c2ccccn2)c1,-0.403
10,CC1CCc2c(C(=O)NCc3ccco3)csc2C1 (stereo not shown),-8.96
11,Cc1cc(C)c2c(N)c(C(=O)NC3CCCC3)sc2n1,0.093
12,Cc1c(C(=O)N(C)CCC#N)oc2ccc(S(=O)(=O)N3CC(C)CC(C)C3)cc12 (stereo not shown),-17.1
13,Cl.O=C(CC12CC3CC(CC(C3)C1)C2)NCC(c1ccc(F)cc1)N1CCOCC1 (stereo not shown),4.4
14,COc1ccc(Cl)cc1NC(=O)Nc1cc(C)on1,0.43
15,CCC1(CC)NC(=O)N(CC(=O)OC(C)C(=O)Nc2cc([N+](=O)[O-])ccc2OC)C1=O (stereo not shown),-6.42
16,CCN(CC)C(CNC(=O)c1cc(=O)[nH]c2ccccc12)c1ccccc1Cl (stereo not shown),3.58
17,COCc1cc(C)nc(OCC(=O)N/N=C/c2ccc(O)cc2O)c1C#N,-15.6
18,O=C(COC(=O)c1cccc(Cl)c1)NCCN1C(=O)CSC1=O,9.89
19,COc1ccc(-c2cc(-c3ccccc3)nc(SCC(=O)Nc3nccs3)c2C#N)cc1,7.1
20,CCCc1nn(C)c(C(=O)Nc2ccccc2)c1Cl,-13.4

row,SMILES,"hERG current change (%, negative = inhibition) at 10uM [%]"
1,N#Cc1ccc(OCC(=O)Nc2ccc(N3CCCC3)cc2)cc1,-20.7
2,COc1ccc2c(CC(=O)Nc3ccc(OC)nc3)coc2c1,3.6
3,CC(C)C(=O)NN(C(=O)c1ccccc1)c1ccccc1,20.4
4,CCCC(=O)Nc1ccccc1NC(=O)c1ccc(OC)cc1,11.9
5,O=c1c([N+](=O)[O-])cccn1Cc1cccc(Cl)c1,-3.53
6,CC(=O)c1c(C)nc(-c2ccccc2)nc1N,22.8
7,CC(C)OC(=O)n1c(=S)oc2ccccc21,8.17
8,NC(=O)c1ccc(SCC(=O)NC2CCCCC2)c([N+](=O)[O-])c1,23.8
9,CCOC(=O)c1c(C)n(-c2ccc(C)cc2)c2ccc(O)c(CN(C)C)c12.Cl,-74.2
10,CCOC(=O)C1=C(C)NC(=S)NC1c1ccc(OCC(=O)N2CCCCCC2)c(OC)c1 (stereo not shown),14.2
11,CCCCN(C)C(=O)c1nc2ccccn2c1CNCCCn1nnc2ccccc21,-38
12,CCNc1c(NS(=O)(=O)c2ccc(Cl)s2)c(=O)oc2ccccc12,3.59
13,CN1CCN(CCOCCOc2c(Cl)cc(Cl)cc2Cl)CC1.O=C(O)C(=O)O,-26.9
14,Cc1cc(C)c(S(C)(=O)=O)c(Oc2cccc(Cl)c2)n1,7.17
15,COc1ccc(-c2cc(C(=O)N3CCCC3)no2)cc1OC,-1.69
16,CN(C)S(=O)(=O)N(CC(=O)Nc1ccc2ccccc2c1)c1ccccc1,8.45
17,O=C(COc1cccc([N+](=O)[O-])c1)N/N=C/c1ccco1,-25.2
18,O=C1CN=C(c2ccc(Cl)cc2)c2oc3ccccc3c2N1,10.2
19,C=CC(C)(O)CCCC(C)CCCC(C)CCCC(C)C (stereo not shown),17.1
20,Cc1ccnc(NC(=O)Nc2ccc(Br)cc2Cl)c1,11.6

row,SMILES,"hERG current change (%, negative = inhibition) at 10uM [%]"
1,CCOC(=O)c1nnc(-c2ccc(C)cc2)nc1Oc1ccccc1Cl,0.159
2,COC(=O)c1sccc1NC(=O)Nc1cc(C)ccc1OC,-10
3,CCN(CC)c1ccc(C2C(C(=O)OC(C)C)C(=O)CC(C)(O)C2C(=O)OC(C)C)cc1 (stereo not shown),18
4,CCCCNC(=O)/C=C/c1ccc(OC)c(Br)c1,-6.27
5,Cc1ccc(Cn2c(N3CCNCC3)nc3c2c(=O)[nH]c(=O)n3C)cc1,13
6,CNC(=O)NC1CCCCc2sccc21 (stereo not shown),-15.8
7,Cc1ccc(C(=O)N2N=C(c3cccc(NS(C)(=O)=O)c3)CC2c2cccs2)cc1 (stereo not shown),1.13
8,CC1CCN(c2nc(NCc3ccco3)nc(N)c2[N+](=O)[O-])CC1,-11.9
9,COc1ccc2cc(CCNC(=O)c3ccco3)c(=O)[nH]c2c1,-2.81
10,Cc1ccccc1C(=O)NC(=S)Nc1ccccc1C(=O)O,15.5
11,OCCCn1c(C2CCCN2c2nc(-c3ccc(Cl)cc3)cs2)nc2cc(C(F)(F)F)ccc21 (stereo not shown),-15.2
12,Cc1ccc(C(=O)c2ccccc2C(=O)OCC(=O)Nc2ccc(SC(F)F)cc2)cc1,3.08
13,O=C(COc1ccc(Cl)cc1)N/N=C/c1cccc2cccnc12,-20
14,CC(=O)Nc1ccc(C2=NN(c3ccccc3)C(c3ccccc3)C2)cc1 (stereo not shown),4.25
15,CC1CCCN(C(=O)COC(=O)/C=C/c2ccc(C(F)(F)F)cc2)C1 (stereo not shown),-7.37
16,O=C(Nc1cccc(Cl)c1)C1C2CCC3C(CCC21)C3(Cl)Cl (stereo not shown),9
17,CC(CNC(=O)CCC(=O)N1CCOc2ccccc21)c1ccccc1 (stereo not shown),-9.84
18,CC12C(=O)N(Cc3ccccc3)C(=O)C1C1C=CC2C1 (stereo not shown),-2.04
